# Results are given in words; binding and its absence hold for the method and conditions named. In cells and extracts the contact can be indirect. Some entries that bind do so weakly or less than the wild type. For some assays here: Sequences can lack the tags named with a protein.
# Sequences of proteins named here, by UniProt entry; tags and fusion partners are left off. Residues count along the entry.
# UniProt P26660, residues 814-1030: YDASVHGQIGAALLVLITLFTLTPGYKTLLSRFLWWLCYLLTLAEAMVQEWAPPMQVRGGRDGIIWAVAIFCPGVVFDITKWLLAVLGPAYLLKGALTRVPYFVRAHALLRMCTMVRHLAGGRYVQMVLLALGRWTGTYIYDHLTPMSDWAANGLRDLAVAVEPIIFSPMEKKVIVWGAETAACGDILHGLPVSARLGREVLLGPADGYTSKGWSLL
# UniProt Q9BY78: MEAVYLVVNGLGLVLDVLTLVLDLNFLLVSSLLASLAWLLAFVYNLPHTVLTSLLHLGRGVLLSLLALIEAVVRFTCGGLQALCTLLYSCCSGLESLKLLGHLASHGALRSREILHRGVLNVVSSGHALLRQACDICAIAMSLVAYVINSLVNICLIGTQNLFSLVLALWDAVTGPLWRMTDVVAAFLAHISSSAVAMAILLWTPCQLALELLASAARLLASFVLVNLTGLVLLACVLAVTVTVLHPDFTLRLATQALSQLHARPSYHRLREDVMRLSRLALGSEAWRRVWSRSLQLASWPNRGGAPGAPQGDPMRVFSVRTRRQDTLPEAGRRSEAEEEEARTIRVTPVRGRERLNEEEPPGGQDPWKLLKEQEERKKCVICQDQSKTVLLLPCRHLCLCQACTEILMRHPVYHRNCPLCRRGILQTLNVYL
# UniProt Q96DX4, residues 17-576: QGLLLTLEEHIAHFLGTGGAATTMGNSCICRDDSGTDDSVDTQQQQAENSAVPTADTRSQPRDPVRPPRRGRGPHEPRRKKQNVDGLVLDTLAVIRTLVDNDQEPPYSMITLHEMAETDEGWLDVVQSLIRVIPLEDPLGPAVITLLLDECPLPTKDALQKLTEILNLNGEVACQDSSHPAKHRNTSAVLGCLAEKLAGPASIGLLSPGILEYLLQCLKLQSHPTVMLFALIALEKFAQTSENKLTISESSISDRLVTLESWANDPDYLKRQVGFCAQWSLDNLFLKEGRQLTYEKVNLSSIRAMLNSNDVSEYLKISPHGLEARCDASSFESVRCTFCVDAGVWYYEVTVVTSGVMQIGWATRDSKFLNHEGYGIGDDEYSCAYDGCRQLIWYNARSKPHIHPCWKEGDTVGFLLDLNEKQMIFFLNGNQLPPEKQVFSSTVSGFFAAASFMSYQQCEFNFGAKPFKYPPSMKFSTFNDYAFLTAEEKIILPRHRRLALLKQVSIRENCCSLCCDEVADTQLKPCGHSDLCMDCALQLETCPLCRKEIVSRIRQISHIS
# UniProt Q8N4F7: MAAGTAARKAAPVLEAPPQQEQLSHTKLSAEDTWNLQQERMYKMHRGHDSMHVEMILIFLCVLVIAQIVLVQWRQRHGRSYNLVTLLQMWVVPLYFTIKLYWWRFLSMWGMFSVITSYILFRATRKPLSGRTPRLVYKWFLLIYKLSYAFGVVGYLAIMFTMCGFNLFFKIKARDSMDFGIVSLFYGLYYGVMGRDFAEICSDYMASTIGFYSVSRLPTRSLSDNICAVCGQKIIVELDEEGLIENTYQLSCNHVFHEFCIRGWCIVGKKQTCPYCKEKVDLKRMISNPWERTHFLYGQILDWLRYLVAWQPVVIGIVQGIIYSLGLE
# UniProt Q86TM6: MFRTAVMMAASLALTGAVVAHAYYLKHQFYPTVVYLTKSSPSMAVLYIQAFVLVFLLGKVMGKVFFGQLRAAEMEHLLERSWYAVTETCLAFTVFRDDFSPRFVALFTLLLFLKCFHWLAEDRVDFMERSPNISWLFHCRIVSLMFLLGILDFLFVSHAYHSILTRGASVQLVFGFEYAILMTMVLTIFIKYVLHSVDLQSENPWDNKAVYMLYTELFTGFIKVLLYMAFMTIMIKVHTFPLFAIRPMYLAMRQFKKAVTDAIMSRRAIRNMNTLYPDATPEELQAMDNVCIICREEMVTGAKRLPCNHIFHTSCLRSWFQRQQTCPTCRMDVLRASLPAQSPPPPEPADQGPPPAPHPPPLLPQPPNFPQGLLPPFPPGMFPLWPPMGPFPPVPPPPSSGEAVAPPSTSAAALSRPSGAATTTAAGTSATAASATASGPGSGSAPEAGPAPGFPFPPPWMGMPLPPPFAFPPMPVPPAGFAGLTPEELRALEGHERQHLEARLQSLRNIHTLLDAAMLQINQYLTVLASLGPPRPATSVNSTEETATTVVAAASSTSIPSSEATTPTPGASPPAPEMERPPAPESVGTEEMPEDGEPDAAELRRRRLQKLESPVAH
# B1: MARCH8 (endogenous) (enzyme, UniProt Q5T0T0 1-291)
# chain: MSMPLHQISAIPSQDAISARVYRSKTKEKEREEQNEKTLGHFMSHSSNISKAGSPPSASAPAPVSSFSRTSITPSSQDICRICHCEGDDESPLITPCHCTGSLHFVHQACLQQWIKSSDTRCCELCKYEFIMETKLKPLRKWEKLQMTSSERRKIMCSVTFHVIAITCVVWSLYVLIDRTAEEIKQGQATGILEWPFWTKLVVVAIGFTGGLLFMYVQCKVYVQLWKRLKAYNRVIYVQNCPETSKKNIFEKSPLTEPNFENKHGYGICHSDTNSSCCTEPEDTGAEIIHV
# B2: GLuc1-MARCH10 (enzyme, UniProt Q8NA82 1-808)
# chain: MLHDARDRQKFFSDVQYLRDMQHKVDSEYQACLRRQEYRRDPNEKKRDQFWGQETSFERSRFSSRSSSKQSSSEEDALTEPRSSIKISAFKCDSKLPAIDQTSVKQKHKSTMTVRKAEKVDPSEPSPADQAPMVLLRKRKPNLRRFTVSPESHSPRASGDRSRQKQQWPAKVPVPRGADQVVQQEGLMCNTKLKRPNQERRNLVPSSQPMTENAPDRAKKGDPSAPSQSELHPALSQAFQGKNSPQVLSEFSGPPLTPTTVGGPRKASFRFRDEDFYSILSLNSRRESDDTEEETQSEECLWVGVRSPCSPSHHKRSRFGGTSTPQAKNKNFEENAENCRGHSSRRSEPSHGSLRISNAMEPATERPSAGQRLSQDPGLPDRESATEKDRGGSENAKKSPLSWDTKSEPRQEVGVNAENVWSDCISVEHRPGTHDSEGYWKDYLNSSQNSLDYFISGRPISPRSSVNSSYNPPASFMHSALRDDIPVDLSMSSTSVHSSDSEGNSGFHVCQPLSPIRNRTPFASAENHNYFPVNSAHEFAVREAEDTTLTSQPQGAPLYTDLLLNPQGNLSLVDSSSSSPSRMNSEGHLHVSGSLQENTPFTFFAVSHFPNQNDNGSRMAASGFTDEKETSKIKADPEKLKKLQESLLEEDSEEEGDLCRICQIAGGSPSNPLLEPCGCVGSLQFVHQECLKKWLKVKITSGADLGAVKTCEMCKQGLLVDLGDFNMIEFYQKHQQSQAQNELMNSGLYLVLLLHLYEQRFAELMRLNHNQVERERLSRNYPQPRTEENENSELGDGNEGSISQSQVV
# B3: GLuc1-MARCH8 (enzyme, UniProt Q5T0T0 1-291)
# chain: B1 chain
# B4: GLuc1-AREL1 (enzyme, UniProt O15033 1-823)
# chain: MFYVIGGITVSVVAFFFTIKFLFELAARVVSFLQNEDRERRGDRTIYDYVRGNYLDPRSCKVSWDWKDPYEVGHSMAFRVHLFYKNGQPFPAHRPVGLRVHISHVELAVEIPVTQEVLQEPNSNVVKVAFTVRKAGRYEITVKLGGLNVAYSPYYKIFQPGMVVPSKTKIVCHFSTLVLTCGQPHTLQIVPRDEYDNPTNNSMSLRDEHNYTLSIHELGPQEEESTGVSFEKSVTSNRQTFQVFLRLTLHSRGCFHACISYQNQPINNGEFDIIVLSEDEKNIVERNVSTSGVSIYFEAYLYNATNCSSTPWHLPPMHMTSSQRRPSTAVDEEDEDSPSECHTPEKVKKPKKVYCYVSPKQFSVKEFYLKIIPWRLYTFRVCPGTKFSYLGPDPVHKLLTLVVDDGIQPPVELSCKERNILAATFIRSLHKNIGGSETFQDKVNFFQRELRQVHMKRPHSKVTLKVSRHALLESSLKATRNFSISDWSKNFEVVFQDEEALDWGGPRREWFELICKALFDTTNQLFTRFSDNNQALVHPNPNRPAHLRLKMYEFAGRLVGKCLYESSLGGAYKQLVRARFTRSFLAQIIGLRMHYKYFETDDPEFYKSKVCFILNNDMSEMELVFAEEKYNKSGQLDKVVELMTGGAQTPVTNANKIFYLNLLAQYRLASQVKEEVEHFLKGLNELVPENLLAIFDENELELLMCGTGDISVSDFKAHAVVVGGSWHFREKVMRWFWTVVSSLTQEELARLLQFTTGSSQLPPGGFAALCPSFQIIAAPTHSTLPTAHTCFNQLCLPTYDSYEEVHRMLQLAISEGCEGFGML
# B5: GLuc1-RNFT2 (enzyme, UniProt Q96EX2 1-444)
# chain: MWLFTVNQVLRKMQRRHSSNTDNIPPERNRSQALSSEASVDEGGVFESLKAEAASPPALFSGLSGSLPTSSFPSSLVLGSSAGGGDVFIQMPASREEGGGRGEGGAYHHRQPHHHFHHGGHRGGSLLQHVGGDHRGHSEEGGDEQPGTPAPALSELKAVICWLQKGLPFILILLAKLCFQHKLGIAVCIGMASTFAYANSTLREQVSLKEKRSVLVILWILAFLAGNTLYVLYTFSSQQLYNSLIFLKPNLEMLDFFDLLWIVGIADFVLKYITIALKCLIVALPKIILAVKSKGKFYLVIEELSQLFRSLVPIQLWYKYIMGDDSSNSYFLGGVLIVLYSLCKSFDICGRVGGVRKALKLLCTSQNYGVRATGQQCTEAGDICAICQAEFREPLILLCQHVFCEECLCLWLDRERTCPLCRSVAVDTLRCWKDGATSAHFQVY
# B6: GLuc1-RNF24 (enzyme, UniProt Q9Y225 1-148)
# chain: MSSDFPHYNFRMPNIGFQNLPLNIYIVVFGTAIFVFILSLLFCCYLIRLRHQAHKEFYAYKQVILKEKVKELNLHELCAVCLEDFKPRDELGICPCKHAFHRKCLIKWLEVRKVCPLCNMPVLQLAQLHSKQDRGPPQGPLPGAENIV
# B7: GLuc1-RNF152 (enzyme, UniProt Q8N8N0 1-203)
# chain: METLSQDSLLECQICFNYYSPRRRPKLLDCKHTCCSVCLQQMRTSQKDVRCPWCRGVTKLPPGFSVSQLPDDPEVLAVIAIPHTSEHTPVFIKLPSNGCYMLPLPISKERALLPGDMGCRLLPGSQQKSVTVVTIPAEQQPLQGGAPQEAVEEEQDRRGVVKSSTWSGVCTVILVACVLVFLLGIVLHNMSCISKRFTVISCG
# B8: GLuc1-CGRRF1 (enzyme, UniProt Q99675 1-332)
# chain: MAAVFLVTLYEYSPLFYIAVVFTCFIVTTGLVLGWFGWDVPVILRNSEETQFSTRVFKKQMRQVKNPFGLEITNPSSASITTGITLTTDCLEDSLLTCYWGCSVQKLYEALQKHVYCFRISTPQALEDALYSEYLYQEQYFIKKDSKEEIYCQLPRDTKIEDFGTVPRSRYPLVALLTLADEDDREIYDIISMVSVIHIPDRTYKLSCRILYQYLLLAQGQFHDLKQLFMSANNNFTPSNNSSSEEKNTDRSLLEKVGLSESEVEPSEENSKDCVVCQNGTVNWVLLPCRHTCLCDGCVKYFQQCPMCRQFVQESFALCSQKEQDKDKPKTL
# B9: GLuc1-RNF34 (enzyme, UniProt Q969K3 1-372)
# chain: MKAGATSMWASCCGLLNEVMGTGAVRGQQSAFAGATGPFRFTPNPEFSTYPPAATEGPNIVCKACGLSFSVFRKKHVCCDCKKDFCSVCSVLQENLRRCSTCHLLQETAFQRPQLMRLKVKDLRQYLILRNIPIDTCREKEDLVDLVLCHHGLGSEDDMDTSSLNSSRSQTSSFFTRSFFSNYTAPSATMSSFQGELMDGDQTSRSGVPAQVQSEITSANTEDDDDDDDEDDDDEEENAEDRNPGLSKERVRASLSDLSSLDDVEGMSVRQLKEILARNFVNYSGCCEKWELVEKVNRLYKENEENQKSYGERLQLQDEEDDSLCRICMDAVIDCVLLECGHMVTCTKCGKRMSECPICRQYVVRAVHVFKS
# B10: GLuc1-RNF139 (enzyme, UniProt Q8WU17 1-664)
# chain: MAAVGPPQQQVRMAHQQVWAALEVALRVPCLYIIDAIFNSYPDSSQSRFCIVLQIFLRLFGVFASSIVLILSQRSLFKFYTYSSAFLLAATSVLVNYYASLHIDFYGAYNTSAFGIELLPRKGPSLWMALIVLQLTFGIGYVTLLQIHSIYSQLIILDLLVPVIGLITELPLHIRETLLFTSSLILTLNTVFVLAVKLKWFYYSTRYVYLLVRHMYRIYGLQLLMEDTWKRIRFPDILRVFWLTRVTAQATVLMYILRMANETDSFFISWDDFWDLICNLIISGCDSTLTVLGMSAVISSVAHYLGLGILAFIGSTEEDDRRLGFVAPVLFFILALQTGLSGLRPEERLIRLSRNMCLLLTAVLHFIHGMTDPVLMSLSASHVSSFRRHFPVLFVSACLFILPVLLSYVLWHHYALNTWLFAVTAFCVELCLKVIVSLTVYTLFMIDGYYNVLWEKLDDYVYYVRSTGSIIEFIFGVVMFGNGAYTMMFESGSKIRAFMMCLHAYFNIYLQAKNGWKTFMNRRTAVKKINSLPEIKGSRLQEINDVCAICYHEFTTSARITPCNHYFHALCLRKWLYIQDTCPMCHQKVYIEDDIKDNSNVSNNNGFIPPNETPEEAVREAAAESDRELNEDDSTDCDDDVQRERNGVIQHTGAAAEEFNDDTD
# Biological target: GLuc2-NS2 (HCV NS2 protein derived from the J6/JFH genome, fused to a Gaussia luciferase fragment) (hepatitis C virus (J6/JFH)) (UniProt P26660)
# Experiment: split reporter; HT-GPCA (Gaussia princeps split-luciferase complementation): GLuc1-UPS (prey) and GLuc2-NS2 (bait) transfected pairwise into 293T cells, luciferase at 24 hr; primary screen (RLU, boxplot) and secondary screen (NLR, Z score)
row,Molecule,binding
1,GLuc1-RNF26 (from UniProt Q9BY78 1-433) (enzyme),binds
2,GLuc1-RSPRY1 (from UniProt Q96DX4 17-576) (enzyme),binds
3,GLuc1-RNA175 (from UniProt Q8N4F7 1-328) (enzyme),binds
4,GLuc1-SYV1 (from UniProt Q86TM6 1-617) (enzyme),binds

# Biological target: HCV NS2 (native, from J6/JFH HCV RNA) (hepatitis C virus (J6/JFH)) (UniProt P26660)
# Experiment: co-IP; IP with anti-NS2 antibody or IgG control from membrane fractions of Huh7.5.1 cells 72 hr after transfection with HCV RNA; cells treated with 1 mM DSP crosslinker before lysis; blots for MARCH8, MARCH10, NS2
row,Molecule,binding
1,B1,binds

# Biological target: GLuc2-NS2 (HCV NS2 protein derived from the J6/JFH genome, fused to a Gaussia luciferase fragment) (hepatitis C virus (J6/JFH)) (UniProt P26660)
# Experiment: split reporter; HT-GPCA (Gaussia princeps split-luciferase complementation): GLuc1-UPS (prey) and GLuc2-NS2 (bait) transfected pairwise into 293T cells, luciferase at 24 hr; primary screen (RLU, boxplot) and secondary screen (NLR, Z score)
# Remark: another data set of the same source
row,Molecule,binding
1,B2,no binding
2,B3,binds
3,B4,binds
4,B5,binds
5,B6,binds
6,B7,binds
7,B8,binds
8,B9,binds
9,B10,binds

# From PMC7053169
